Results from PubChem BioAssay AID504466 (National Center for Advancing Translational Sciences (NCATS), 2011).
Out of some 330,000 compounds screened, about 4,200 (1.3%) were called active. Inconclusive means that the source gave no clear call. Such entries were picked first, then a sample of the others. The call rests on the fitted dose curve; in most records, active means well fitted activation curve with a large enough effect; inconclusive means small, poorly fitted or top-dose-only effect; inactive means no such curve, though single readings can be large or run the other way. Potencies beside an inconclusive call are fits to weak or partial responses and may not hold up.

Experiment: qHTS screen for small molecules that induce genotoxicity in human embryonic kidney (HEK293T) cells expressing luciferase-tagged ELG1; further: nearly all actives have a fitted effect of over 60% in size
Settings: HEK293T ELG1-luciferase reporter, luminescence, 16 h; series mostly up to 46 µM
Procedure, shortened: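 Cells (2,000/well) expressing the ELG1-luciferase fusion are dosed by pin tool and kept 16 hr at 37 °C, 5% CO2. Signal comes from ONE-Glo luciferase reagent after 30 min at room temperature.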
Potency means the concentration at half of the fitted maximal effect; tags describe the fitted curve by direction and shape.

Row | Structure (SMILES) | Potency
1 | COc1ccc(C(=O)CC(=O)C(=O)Nc2ccc(C)c(Cl)c2)cc1 | inactive
2 | O=[N+]([O-])c1cccnc1Oc1ccc(C2SCCS2)cc1 | inconclusive: 13 µM [activator, partial curve, poor fit]
3 | Cc1ccc(S(=O)(=O)N2CCCCC2)cc1NC(=O)Cn1ncc(Cl)c(Cl)c1=O | inconclusive: 6.51 µM [activator, partial curve, poor fit]
4 | Cc1ccc(OCC(=O)NC(=S)Nc2ccccn2)c(Br)c1 | active: 0.13 µM
5 | O=C(CS(=O)(=O)c1ccccc1)N1CCc2ccccc21 | inconclusive: 18.3 µM [activator, partial curve]
6 | COC(=O)c1ccc(NC(=S)Nc2ccccc2)cc1 | inconclusive: 29.1 µM [activator, single point]
7 | COc1cc(-c2nc(-c3ccc4c(c3)-c3ccccc3S4(=O)=O)c(-c3ccccc3)[nH]2)cc(OC)c1OC | inactive
8 | N=C1S/C(=C\c2ccco2)C(=O)N1c1nccs1 | inconclusive: 29.1 µM [activator, single point]
9 | Cn1cccc1CC(=O)N/N=C/c1ccc(C(C)(C)C)cc1 | inactive
10 | COc1cccc2cc(CC(=O)c3cc(C)ccc3C)c(=O)oc12 | inactive
11 | N#C/C(=C\c1ccc(Cl)c([N+](=O)[O-])c1)c1ccccn1 | inconclusive: 25.9 µM [activator, single point]
12 | O=[N+]([O-])c1ccc(N2CCN(S(=O)(=O)c3ccccc3)CC2)cc1NCCN1CCOCC1 | inactive
13 | CN(CCC1CCCCO1)C(=O)CCc1nnc(CCc2ccccc2)o1 (centres undefined) | inconclusive: 32.6 µM [activator, partial curve, poor fit]
14 | Fc1ccc(/C=N/Nc2nccnc2Cl)cc1 | inconclusive: 20.6 µM [activator, single point]
15 | O=C(N/N=C/c1ccccc1)c1n[nH]c2c1CCCC2 | inconclusive: 1.16 µM [activator, partial curve]
16 | Cc1ccc(C)c(OCc2cc(C(=O)N3C[C@@H](C)O[C@@H](C)C3)no2)c1 | inconclusive: 2.91 µM [activator, partial curve, poor fit]
17 | CNC(=O)[C@H]1O[C@@H](n2cnc3c(NCc4cccc(I)c4)nc(Cl)nc32)[C@H](O)[C@@H]1O | inconclusive: 1.46 µM [activator, partial curve, poor fit]
18 | Cc1ccc2oc(C(=O)NCC(c3ccco3)N(C)C)c(C)c2c1 (centres undefined) | inconclusive: 25.9 µM [activator, partial curve, poor fit]
19 | NNS(=O)(=O)c1ccc(Cc2ncc(C(F)(F)F)cc2Cl)s1 | inactive
20 | Cc1ccc(C)c(NC(=O)N2CCc3ccccc3C2)c1 | inconclusive: 18.3 µM [activator, single point]
21 | Cc1ccc(N/N=C/c2ccncc2)cc1 | inconclusive: 10.3 µM [activator, partial curve, poor fit]
22 | O=C(Nc1ccc(F)cc1)c1ccc2ncsc2c1 | inconclusive: 10.3 µM [activator, partial curve, poor fit]
23 | CC(=O)c1cccc(NC(=O)c2cc3nc(C)cc(C)n3n2)c1 | active: 8.2 µM

Row | Structure (SMILES) | Potency
24 | O=C(O)COc1ccc(/C=N/NC(=O)/C(=C/C=C/c2ccccc2)NC(=O)c2ccccc2)cc1 | inactive
25 | Cc1cc(C(=O)Nc2cccc(C(=O)O)c2)c(C)o1 | inconclusive: 9.2 µM [activator, partial curve]
26 | Cc1c(Br)c(C(=O)NNC(=O)c2ccc(C(C)(C)C)cc2)nn1C | inactive
27 | NC(=O)c1ccsc1NC(=O)Cc1ccc([N+](=O)[O-])cc1 | inconclusive: 20.6 µM [activator, partial curve, poor fit]
28 | Cc1ccc(CN2C(=O)C(=O)c3cc(C)ccc32)cc1 | inconclusive: 23.1 µM [activator, partial curve, poor fit]
29 | C/C(=N\NC(=O)c1c(C)nc2ccccn12)c1ccc(O)cc1O | inconclusive: 20.6 µM [activator, single point]
30 | COc1ccc2sc(-c3ccc(S(C)(=O)=O)cc3)c(-c3ccc(C(N)=O)cc3)c2c1 | inconclusive: 18.3 µM [activator, partial curve, poor fit]
31 | Cc1ccc(-c2csc(=S)[nH]2)cc1 | inconclusive: 2.31 µM [activator, full curve, poor fit]
32 | CCN(CCn1cccn1)C(=O)CCc1nnc(CCCc2ccccc2)o1 | active: 16.4 µM
33 | O=C(Nc1ccc2c(c1)OCCO2)c1ccc(Br)o1 | inconclusive: 2.91 µM [activator, full curve]
34 | COCCNc1oc(-c2ccc(Cl)cc2)nc1C#N | inconclusive: 23.1 µM [activator, partial curve, poor fit]
35 | COc1ccc(NC(=O)CS(=O)c2cccc(Cl)c2)cc1 (centres undefined) | inactive
36 | COc1ccc(NC(=O)c2cc3ccccc3oc2=O)c(OC)c1 | inconclusive: 9.2 µM [activator, partial curve]
37 | Cc1ccc(-c2[nH]n3c(=O)c4c(nc3c2C)CCCC4)cc1 | inconclusive: 20.6 µM [activator, partial curve, poor fit]
38 | CCOC(=O)CSc1nc2cc(OC)ccc2cc1C#N | active: 0.82 µM
39 | COC(=O)c1cnn(-c2cc(Oc3ccccc3)ncn2)c1N | inconclusive: 5.8 µM [activator, partial curve, poor fit]
40 | CCSc1nc(-c2ccc(OC)cc2)ccc1C#N | inconclusive: 29.1 µM [activator, partial curve, poor fit]
41 | Cc1ccc([C@@H]2[C@@H]3C(=O)N(c4ccccc4)C(=O)[C@@H]3[C@]3(C)C(=O)N(CC4CC4)CC(=O)N23)o1 | inactive
42 | COc1cc(C2NC(=S)NC(O)(C(F)(F)F)C2C(=O)c2cccs2)cc(OC)c1O (centres undefined) | inconclusive: 32.6 µM [activator, partial curve, poor fit]
43 | CCOc1nc(C)ccc1-c1noc(-c2ccco2)n1 | inconclusive: 15.8 µM [activator, partial curve, poor fit]
44 | Cc1cnc(NC(=O)c2ccc(OCC3CCCO3)cc2)s1 (centres undefined) | inconclusive: 0.411 µM [activator, full curve]
45 | O=C(Nc1ccc2c(c1)OCO2)Nc1ccc(F)cc1F | inconclusive: 5.8 µM [activator, full curve, poor fit]
46 | FC(F)Sc1ccc(NC(=S)NC2CCCCC2)cc1 | inconclusive: 16.4 µM [activator, partial curve, poor fit]

Row | Structure (SMILES) | Potency
47 | CCOC(=O)c1cc(-c2ccc(F)cc2)nc2c1c(=O)[nH]c(=O)n2Cc1ccccc1 | inconclusive: 29.1 µM [activator, single point]
48 | COc1ccc(NC(=O)Nc2cccc3c2O[C@H](CN(C)S(C)(=O)=O)[C@@H](C)CN([C@H](C)CO)C3=O)cc1 | inactive
49 | COc1ccc(/C=N/Nc2ccccn2)cc1OC | inconclusive: 20.6 µM [activator, partial curve]
50 | Cc1ccc(NC(=S)c2nc3ccccc3s2)cc1 | inactive
51 | Cc1ccc(NC(=O)C2C(=O)N(C)c3ccccc32)cc1 (centres undefined) | inactive
52 | CSc1ccc(CNc2ccc(C)cc2)cc1 | inconclusive: 13 µM [activator, partial curve, poor fit]
53 | CCc1ccc(C(=O)Nc2ccc3nc(C)ccc3c2)cc1 | inconclusive: 20.6 µM [activator, single point]
54 | O=C(Nc1cccc(F)c1)NC1CCCCC1 | inconclusive: 9.2 µM [activator, partial curve]
55 | C=CCOc1ccccc1C(=O)/C=C1/C(=O)Nc2ccccc21 | inconclusive: 29.1 µM [activator, partial curve, poor fit]
56 | O=C(Nc1nsc(-c2ccccc2)n1)c1cccs1 | active: 0.58 µM
57 | CC(=O)N1CCN(c2ccc(NC(=O)c3ccccc3)cc2)CC1 | inconclusive: 18.3 µM [activator, partial curve, poor fit]
58 | Cc1ccc(C)c(NC(=O)CCCCCCCCCCC2COCCO2)c1 (centres undefined) | inactive
59 | O=C(O)c1ccccc1CSc1nc2ccccc2s1 | inconclusive: 23.1 µM [activator, single point]
60 | CN(C)c1ccc(NC(=O)c2ccc([N+](=O)[O-])cc2Cl)cc1 | inconclusive: 6.51 µM [activator, partial curve]
61 | COc1ccc(OCc2cc(C(=O)N3CCOCC3)no2)c(Cl)c1 | active: 18.3 µM
62 | Cc1cc(C(=O)Nc2cccc3c2O[C@H](CN(C)CC2CC2)[C@@H](C)CN([C@H](C)CO)C3=O)n(C)n1 | inactive
63 | COc1ccc(Nc2nc(N)c3ccccc3n2)c(OC)c1 | inconclusive: 6.51 µM [activator, partial curve, poor fit]
64 | COc1ccc(C(C)(C)C)cc1NC(=O)CCc1c(C)noc1C | inactive
65 | COc1ccc(-c2csc(N3C(=N)SCC3=O)n2)cc1 | active: 1.64 µM
66 | Cc1ccc(C(=O)N/C(N)=N/c2nc3ccccc3o2)cc1 | inconclusive: 7.31 µM [activator, partial curve, poor fit]
67 | CN(C)c1ccc(C2=NOC(CN3C(=O)c4ccccc4S3(=O)=O)C2)cc1 (centres undefined) | inconclusive: 3.26 µM [activator, full curve, poor fit]
68 | Cc1ccc(NC(=O)CS(=O)CC(=O)N(CC(=O)NC(C)(C)C)c2cccc(C)c2C)cc1 (centres undefined) | inconclusive: 7.3 µM [activator, partial curve, poor fit]
69 | COCCn1c(SCC(=O)N2CCC(C)CC2)nc2c([nH]c3ccccc32)c1=O | inconclusive: 29.1 µM [activator, partial curve, poor fit]
